The values below come from PMC6919601, “Identification of Plasmodium dipeptidyl aminopeptidase allosteric inhibitors by high throughput screening” (PLoS ONE, 2019).

“And” between values parts separate entries of the source, which are not always exact repeats. Equal values may be shown once. Screen size: about 110,000 compounds; about 230 (0.21%) showed an effect of 50% or more. Some of the results follow.
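Further: 30 min substrate incubation versus DMSO and 10 µM JCP410 controls.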

In the experiment the target is DPAP1 (Plasmodium falciparum, UniProt Q8IIJ9). As to the kind of experiment: primary screen, percent inhibition; read by cleavage of a fluorogenic dipeptide substrate; higher = more effect of the substance. Set-up: species or system P. falciparum D10 trophozoite lysates; single well.
Chain of DPAP1 (Q8IIJ9 whole entry, looked up): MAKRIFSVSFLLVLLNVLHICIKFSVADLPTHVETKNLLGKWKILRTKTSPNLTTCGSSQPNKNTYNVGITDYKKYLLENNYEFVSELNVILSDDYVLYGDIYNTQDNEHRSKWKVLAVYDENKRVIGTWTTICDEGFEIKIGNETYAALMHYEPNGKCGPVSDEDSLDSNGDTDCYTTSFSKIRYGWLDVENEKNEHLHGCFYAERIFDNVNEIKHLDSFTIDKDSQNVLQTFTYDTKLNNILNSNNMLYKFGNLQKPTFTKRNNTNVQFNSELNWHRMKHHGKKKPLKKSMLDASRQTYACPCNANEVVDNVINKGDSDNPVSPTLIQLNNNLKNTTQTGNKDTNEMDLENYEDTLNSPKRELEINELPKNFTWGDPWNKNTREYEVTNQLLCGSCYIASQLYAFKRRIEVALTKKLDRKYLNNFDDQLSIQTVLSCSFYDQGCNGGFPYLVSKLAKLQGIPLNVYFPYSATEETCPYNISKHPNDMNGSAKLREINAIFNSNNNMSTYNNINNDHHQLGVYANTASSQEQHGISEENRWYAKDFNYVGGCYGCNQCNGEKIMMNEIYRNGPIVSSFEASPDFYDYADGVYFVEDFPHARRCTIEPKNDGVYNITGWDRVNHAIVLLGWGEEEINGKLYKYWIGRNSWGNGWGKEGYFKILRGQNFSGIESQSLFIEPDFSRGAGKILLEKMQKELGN
Consider `Cc1c(Cl)cccc1-n1ncc(C(=O)Nc2cccnc2)c1C1CCN(C(=O)OC(C)(C)C)CC1`, for which the “% Inhibition @ 10 uM” value is on record as 4.76%.

`CC(C)CC(NC(=O)c1ccc(NC(=O)N(C)[C@@H]2CCN(Cc3ccccc3)C2)cc1)C(=O)NCC#N` (stereo partly shown): the “% Inhibition @ 10 uM” value is reported as -2.35%. Then `C/C=C(\C)CN1CCN(C(=O)OCC)CC1`, with -4.04%.

As for `O=C(Nc1ccc(Br)cc1)c1cccnc1`, the “% Inhibition @ 10 uM” value came to 0.827%. `CCOC(=O)C1=C(c2ccccc2)OC(N)=C(C#N)C12C(=O)Nc1ccc(C)c(Br)c12` (stereo not shown): the “% Inhibition @ 10 uM” value was 2.7%. As to `Cc1cc(C(=O)NCCCN2CCCC2=O)c2c(C)nn(-c3ccccc3)c2n1`, the “% Inhibition @ 10 uM” value is -6.86%. As for `CCCCNC(=O)CCc1nc2cccnc2n1Cc1ccccc1`, the “% Inhibition @ 10 uM” value stood at 3.96%.

`Cc1onc(-c2ccccc2)c1C(=O)NC(C)C`: the “% Inhibition @ 10 uM” value amounted to 1.88%.

Turning to `CCN(Cc1ccccc1)c1c(-c2ccccc2)c(=O)c1=O`, the “% Inhibition @ 10 uM” value was 7.14%.

As to `COCCNC(=O)Cn1nc(C)n2c(cc3ccccc32)c1=O`, the “% Inhibition @ 10 uM” value amounted to 4.55%. For the compound `O=C(CCN1N=C(c2ccccc2)CCC1=O)NCC1CCCO1` (stereo not shown), the “% Inhibition @ 10 uM” value is listed as -1.79%. Then `CCOC(=O)NC(=O)Nc1ncccn1`, with 1.32%.

As to `Cc1ccc(C(=O)NCC(C)(C)CNC(=O)c2ccc(C)o2)o1`, the “% Inhibition @ 10 uM” value is -2.46%. As for `CC(=O)c1cc(C(=O)Nc2nccs2)c2ccccn12`, the “% Inhibition @ 10 uM” value was 1.44%. Next, `COc1ccc(OCC(=O)Nc2nc(-c3ccc(OC)cc3)cs2)cc1`: -4.5%; `Cc1ccc(-c2csc3ncnc(N4CC(C)OC(C)C4)c23)cc1` (stereo not shown): -1.22%. As to `COc1ccc2c(c1)C=C1C(=CC(=O)CC1(C)C)O2`, the “% Inhibition @ 10 uM” value is on record as -4.67%. For the compound `CCOC(=O)c1c(NC(C)=O)sc([N+](=O)[O-])c1-c1ccccc1`, the “% Inhibition @ 10 uM” value is given as -5.35%. On to `Cc1ccc(S(=O)(=O)NC(C)(C)C)cc1[N+](=O)[O-]`, for which the “% Inhibition @ 10 uM” value is -2.55%. In the case of `CCCN(CCC)S(=O)(=O)c1ccc([N+](=O)[O-])cc1`, the “% Inhibition @ 10 uM” value was determined as 7.87%. Then `Cc1cccc2c3nn4c(S)n[nH]c4nc-3nc12`, with 2.56%; and `CCN(CC)CCCOc1ccc(C)cc1C`, with 1.35%; and `Cc1cc(O)c(C2=Nc3ccccc3SC(c3ccc4c(c3)OCO4)C2)c(=O)o1` (stereo not shown), with -2.18%. Consider `CCc1nnc(NC(=O)Cn2ncc3c4ccccc4nc-3c2O)s1`, for which the “% Inhibition @ 10 uM” value is reported as -2.96%. `O=C1O/C(=C\c2ccc3ccc(Cl)cc3n2)c2ccccc21`: the “% Inhibition @ 10 uM” value is reported as -5.38%. Regarding `c1cc(N2CCOCC2)nnc1N1CCOCC1`, the “% Inhibition @ 10 uM” value is -0.0508%. `CC(C)OCCCNc1nc2c(=O)n(C)c(=O)n(C)c2[nH]1`: the “% Inhibition @ 10 uM” value is -1.02%. `Cc1ccc(-n2c(C)cc(/C=C3/NC(=O)NC3=O)c2C)nc1`: the “% Inhibition @ 10 uM” value was -2.5%. With `CC1CCN(C(=O)Cn2ncc3c4ccccc4n(Cc4ccccc4)c3c2=O)CC1`, the “% Inhibition @ 10 uM” value is given as 4.95%.

Take `COc1ccc(/C=C2/NC(=O)N(c3ccccc3)C2=O)c(C)c1`: the “% Inhibition @ 10 uM” value is recorded as -3.72%. Regarding `Cc1ccc(OCCCCn2ccnc2)c(C)c1`, the “% Inhibition @ 10 uM” value is listed as 1.35%. Next, `CN1CCN(C/C=C/c2ccc(N(C)C)cc2)CC1`: -4.04%; `O=C1/C(=C/c2ccco2)N=C(N2CCOCC2)N1c1cccc(Cl)c1`: 1.21%. Take `CCOc1cccc(NC(=O)c2ccccc2C)c1`: the “% Inhibition @ 10 uM” value is 0.145%.

Regarding `COc1ccc(CC(=O)n2nc(-c3ccccc3)nc2NCc2ccccc2)cc1OC`, the “% Inhibition @ 10 uM” value came to 2.31%. For the compound `OC1CCCN(Cc2cc(F)ccc2F)C1` (stereo not shown), the “% Inhibition @ 10 uM” value is reported as -5.89%. In the case of `CC(=O)c1nn(-c2ccc(Br)cc2)c(-c2cccs2)c1C#N`, the “% Inhibition @ 10 uM” value is reported as -1.38%. Then `Cc1ccc(-n2ncc3c(NCc4ccccn4)ncnc32)c(C)c1`, with -3.74%; and `CCOCC(O)CSCc1ccccc1` (stereo not shown), with -1.22%; and `COc1ccccc1CC(=O)Nc1ccccc1C(=O)O`, with -4.72%. Next, `Cn1cc(Cl)c(C(=O)Nc2cn(Cc3ccc(Cl)cc3)nc2Br)n1`: 1.02%.

`COc1ccccc1NC(=O)c1c(OC)cccc1OC`: the “% Inhibition @ 10 uM” value is given as -2.15%. On to `OC1CCN(C(=S)NC23CC4CC(CC(C4)C2)C3)CC1`, for which the “% Inhibition @ 10 uM” value was 7.02%. Then `COc1ccc(C(=O)CC2(O)C(=O)N(Cc3ccc(Cl)cc3)c3ccccc32)cc1OC` (stereo not shown), with 0.993%; and `COc1cc2c(cc1OC)CN(Cc1ccc3c(c1)OCO3)CC2`, with -2.56%; and `CSc1nn(CCc2ccncc2)c(=S)s1`, with 5.8%. On to `Cc1ccc(-c2ccc(/C=C(\NC(=O)c3ccccc3)C(=O)NCC3CCCO3)o2)cc1` (stereo not shown), for which the “% Inhibition @ 10 uM” value is -3.04%. With `COc1ccc(-c2noc(CC(=O)N(C)Cc3ccccc3)n2)cc1`, the “% Inhibition @ 10 uM” value was -1.39%. In the case of `COc1ccc(C(=O)N/C(=C\c2ccccc2)C(=O)NCCO)cc1`, the “% Inhibition @ 10 uM” value is recorded as -5.34%.

As to `CC1=C(C(=O)OC2CCCC2)C(c2cccc(F)c2)C2=C(O)CCCC2=N1` (stereo not shown), the “% Inhibition @ 10 uM” value was 0.916%. Regarding `Cc1ccc(S(=O)(=O)CCSc2cccc(C(=O)Nc3cccc(F)c3)c2)cc1`, the “% Inhibition @ 10 uM” value is reported as -1.74%. Then `COc1ccc(Cl)c(NC(=O)c2sc3nc(-c4ccncc4)ccc3c2N)c1`, with 1.86%. For `CCOc1ccc(CCNC(=O)CCc2c(C)nc3ncnn3c2C)cc1OCC`, the “% Inhibition @ 10 uM” value stood at 2.93%.

In the case of `CCCCN(CC#CC(O)(c1ccccc1)c1ccccc1)CCO`, the “% Inhibition @ 10 uM” value is listed as -6.95%. Next, `Nc1c([N+](=O)[O-])nnc2nc(-c3ccccc3)nn12`: 1.66%; `CCCC1=NN2C(=N)/C(=C\c3coc4ccccc4c3=O)C(=O)N=C2S1`: 5.77%; `COc1cc(OC)cc(C(=O)NC2CCCc3ccccc32)c1` (stereo not shown): 2.48%.

Turning to `CCCC1=C(C(=O)OCC)C2(C(=O)Nc3ccccc32)C(C#N)=C(N)O1` (stereo not shown), the “% Inhibition @ 10 uM” value is reported as -2.5%. As for `CCc1cc2c(cc3c(=O)n(CC(=O)NCCc4ccccc4)nc(CC)n32)s1`, the “% Inhibition @ 10 uM” value worked out at 0.0198%.

On to `CN1Cc2c(N3CCOCC3)nc(SCc3ccccc3)c(C#N)c2CC1(C)C`, for which the “% Inhibition @ 10 uM” value was -2.8%.

On to `CC(C)N(Cc1nc(-c2ccccc2)no1)C(=O)c1ccccc1Cl`, for which the “% Inhibition @ 10 uM” value is reported as -4.82%. Turning to `CN1CCN(C(=O)/C(=C/c2cn(C)c3ccccc23)NC(=O)c2ccco2)CC1`, the “% Inhibition @ 10 uM” value stood at 3.24%. Regarding `O=C(c1cccs1)N(Cc1ccc(Cl)cc1)Cc1ccco1`, the “% Inhibition @ 10 uM” value is listed as -0.45%.

In the case of `Cc1cc(C)c2oc(C(=O)N(Cc3cccc(Cl)c3)C3CCS(=O)(=O)C3)cc(=O)c2c1` (stereo not shown), the “% Inhibition @ 10 uM” value is recorded as 5.06%. With `COc1ccc(CCNCc2ccncc2)cc1`, the “% Inhibition @ 10 uM” value was 26.6%. As to `CC(=O)N1N=C(c2ccc(O)cc2)CC1c1ccccc1` (stereo not shown), the “% Inhibition @ 10 uM” value turned out to be 5.12%.

With `CCN(CC)c1ccc(/C=C(\C#N)c2nc3ccccc3[nH]2)c(O)c1`, the “% Inhibition @ 10 uM” value is listed as -4.75%. With `CC12CN(C(=O)c3ccccc3)CC(C)(CN(C(=O)c3ccccc3)C1)C2`, the “% Inhibition @ 10 uM” value is 1.67%. Then `COc1ccc(C=O)cc1CSc1ccccn1`, with 17%; and `O=C(Nc1cccnc1)C1c2ccccc2C(=O)N2CCc3ccccc3C12` (stereo not shown), with -3.31%; and `CCOc1cccc(/C=C2\SC(=O)N(Cc3ccccc3)C2=O)c1O`, with 1.21%. For the compound `Cc1cc(C)n(CCCO)c(=O)c1C#N`, the “% Inhibition @ 10 uM” value is listed as -9.24%. Then `Cc1ccc(C2c3[nH]c4ccccc4c3CC3C(=O)N(C)C(=S)N32)cc1` (stereo not shown), with 9.53%. Turning to `CCOc1cccc(NCc2ccccc2)c2c(C)nc(C)c1-2`, the “% Inhibition @ 10 uM” value is recorded as -0.85%. With `Cc1ccc(-c2cn3nc(N4CCCC(C(=O)NCc5ccc(Cl)cc5)C4)sc3n2)cc1` (stereo not shown), the “% Inhibition @ 10 uM” value is given as -5.88%. In the case of `Cc1ccc2cc(C#N)c(SCC(N)=O)nc2c1`, the “% Inhibition @ 10 uM” value is listed as -0.413%. As for `CC1=C(C(=O)Nc2cccnc2)C(c2ccc3c(c2)OCO3)n2nc(CCCO)nc2N1` (stereo not shown), the “% Inhibition @ 10 uM” value is reported as -10.7%. Then `O=C(c1ccc2c(c1)OCO2)N1CCN(c2ncccn2)CC1`, with -2.82%; and `Cc1ccc2oc(-c3ccc(O)cc3)nc2c1`, with -3.69%; and `COc1cc(OC)c(C2C(C#N)=C(N)Oc3[nH]nc(-c4ccc(C)cc4)c32)cc1OC` (stereo not shown), with -1.19%. On to `Cc1ccc2c(cnn2C(=O)CCCC(=O)NC2CCCC(C)C2C)c1` (stereo not shown), for which the “% Inhibition @ 10 uM” value is on record as -4.71%. Then `CCOc1ccc2nc(N3CCC(C(=O)N4CCN(Cc5ccccc5)CC4)CC3)sc2c1`, with -1.58%; and `Cc1cccc(-c2cc(C(=O)NCc3cccnc3)c3ccccc3n2)c1`, with 1.67%.

For the compound `COc1ccccc1OCc1ccoc1C(=O)O`, the “% Inhibition @ 10 uM” value was -9.32%.

With `CCOC(=O)c1conc1-c1ccc(F)cc1`, the “% Inhibition @ 10 uM” value is -5.94%. With `COc1ccc(CCNC(=O)Cn2cnc3c2c(=O)n(C)c(=O)n3C)cc1OC`, the “% Inhibition @ 10 uM” value was determined as 1.58%.

For `Cc1cc(C)c2nc(N3CCC(C(=O)NCC4CCCO4)CC3)sc2c1` (stereo not shown), the “% Inhibition @ 10 uM” value came to 0.137%.

For the compound `CCOC(=O)N1CCN(C(=O)c2ccc(CS(=O)c3cccc(Cl)c3)o2)CC1` (stereo not shown), the “% Inhibition @ 10 uM” value is reported as -1.57%. Consider `COc1ccc(-n2nc3c(N4CCC(C(=O)NCc5ccc(C)o5)CC4)nnc(C)c3c2C)cc1`, for which the “% Inhibition @ 10 uM” value is on record as 11.7%. Then `Cn1c(C(O)C(O)c2ccccc2)nc2ccccc21` (stereo not shown), with -1.76%; and `O=C(c1ccc(Cl)cc1)N1CCN(c2ccc(Cl)cc2)CC1`, with -3.97%.

In the case of `CCCN(CCO)Cc1ccc2c(c1)c1ccccc1n2CC`, the “% Inhibition @ 10 uM” value is -6%. Then `O=C1CCCc2oc3ccc(NS(=O)(=O)c4ccc5c6c(cccc46)C(=O)N5)cc3c21`, with 3.24% and -3.19%. As for `CC(C)NCC(O)COCCC12CC3CC(CC(C3)C1)C2` (stereo not shown), the “% Inhibition @ 10 uM” value is -5.78%. Turning to `CC(NC(=O)c1ccco1)c1ccccc1` (stereo not shown), the “% Inhibition @ 10 uM” value was -3.03%. In the case of `Cc1nn(CCCC(=O)NC2CCCC(C)C2C)c(=O)c2nccn12` (stereo not shown), the “% Inhibition @ 10 uM” value turned out to be 6.31%. For `O=C(Nc1ccc(I)cc1)[C@@H]1C2C=CC(C2)[C@@H]1C(=O)O` (stereo partly shown), the “% Inhibition @ 10 uM” value came to 0.716%. Then `CCOc1ccc(C(=O)N(Cc2ccccc2Cl)C2CCS(=O)(=O)C2)cc1` (stereo not shown), with 3.72%; and `CCOC(=O)c1c(NC(=O)c2ccccc2)sc2c1CCCC2=O`, with 2.94%; and `COc1ccc(CCNC(=O)CNS(=O)(=O)c2ccc(Cl)cc2)cc1`, with -4.62%. For the compound `Cc1cc(NCCCCO)n2c(nc3ccccc32)c1C#N`, the “% Inhibition @ 10 uM” value is on record as 23.7%. For `O=C(NCc1ccccc1)c1ccc(-c2ccccc2)cc1`, the “% Inhibition @ 10 uM” value was found to be 3.82%. Then `CCOC(=O)CCc1n[nH]c(=O)[nH]c1=O`, with 4.15%.
